Assay results as given in PubChem BioAssay AID485281 (National Center for Advancing Translational Sciences (NCATS), 2010).
Values joined by “and” are separate entries in the source; they are usually repeats but may differ in a detail not shown here. Equal values may be shown once. Screen size: about 350,000 compounds; about 260 (0.074%) were called active. The shares of active, inactive and inconclusive entries below differ from those in the screen. Calls follow the shape of the dose curve; as a rule, active = well fitted inhibition curve with a large enough effect; inconclusive = small, poorly fitted or top-dose-only effect; inactive = no such curve, though single readings can be large or run the other way. A potency beside an inconclusive call is a rough fit, not a confirmed value.

These molecules were tested against Ferritin light chain (Equus caballus) (UniProt P02791) (assay: qHTS Assay for Identification of Novel General Anesthetics). Settings: apoferritin/1-aminoanthracene competitive binding, fluorescence; series mostly up to 77.5 µM.
Outline: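 Concentration-response curves derived by four-parameter Hill fitting of normalized fluorescence, where compounds displaced 1-AMA from 10 uM horse apoferritin following a brief 10 min room-temperature incubation; propofol titration acted as positive control.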
Also: nearly all actives have a fitted effect of over 20% in size.
Potency is read from the fitted curve at half-maximal effect; tags tell the direction and shape of the fitted curve.

UniProt P02791, sequence (P02791 whole entry, looked up): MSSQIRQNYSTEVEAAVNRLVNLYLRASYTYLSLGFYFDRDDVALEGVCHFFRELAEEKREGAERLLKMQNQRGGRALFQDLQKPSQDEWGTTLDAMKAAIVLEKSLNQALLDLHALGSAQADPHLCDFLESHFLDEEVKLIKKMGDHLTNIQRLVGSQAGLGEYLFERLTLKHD

Row | Structure (SMILES) | Potency
1 | Cc1cccc(NC(=O)CSc2nc(C)c(Cc3ccccc3)c(=O)[nH]2)c1 | inconclusive: 31.6 µM [inhibitor, partial curve]
2 | O=C(O)c1sccc1SCc1ccc(Cl)c(Cl)c1 | inconclusive: 31.6 µM [inhibitor, partial curve]
3 | CCCOc1cccc(C(=O)Nc2ccc(-c3nc4ccccc4o3)cc2)c1 | inactive
4 | CC(=O)c1ccc(NC(=S)NCCc2ccc(S(N)(=O)=O)cc2)cc1 | inactive
5 | CCC(C)NC(=O)c1sc2nc(C)c(C(=O)Nc3ccc(Cl)cc3)c(-c3ccc(Br)cc3)c2c1N (stereo unspecified) | inactive
6 | COc1ccc2cc(CNc3ccc(OC)c(OC)c3)c(=O)n(CC(=O)Nc3ccc(C)cc3)c2c1 | inconclusive: 28.2 µM [inhibitor, single point]
7 | COc1ccc(/C=N/NC(=O)c2ccc(COc3ccccc3Cl)o2)cc1 | inconclusive: 5.62 µM [inhibitor, full curve]
8 | COc1ccc(NC(=O)C2=C(C)C(=O)OC23CCC(C)CC3)cc1Cl (stereo unspecified) | inconclusive: 39.8 µM [inhibitor, single point]
9 | COc1ccc(Cl)cc1NC(=S)N(CCCN1CCOCC1)Cc1cn(C)c2ccccc12 | inactive
10 | O=C(CN1N=C(c2ccc(Cl)cc2)CCC1=O)NCc1cccnc1 | inconclusive: 44.7 µM [inhibitor, single point]
11 | O=[N+]([O-])c1ccc(C(O)CN2CCN(Cc3ccccc3)CC2)cc1 (stereo unspecified) | inactive
12 | Cc1c(Cl)cnc(NC(=O)CSc2nnc(C)n2Cc2ccccc2)c1Cl | inconclusive: 31.6 µM [inhibitor, partial curve]
13 | CC(OC(=O)C1CCCCC1)C(=O)Nc1cccc(Cl)c1 (stereo unspecified) | inconclusive: 17.8 µM [inhibitor, partial curve]
14 | O=C(N/N=C/c1ccccc1OCc1ccccc1Cl)c1cccnc1 | inconclusive: 31.6 µM [inhibitor, partial curve]
15 | Cc1nc2scc(-c3ccccc3)c2c(=O)n1/N=C/c1ccco1 | inconclusive: 28.2 µM [inhibitor, partial curve]
16 | NC(=O)CC(NC(=O)Cc1ccc(Br)cc1)c1ccc(NC2CC3CCC2C3)c([N+](=O)[O-])c1 (stereo unspecified) | inconclusive: 28.2 µM [inhibitor, partial curve]
17 | Cc1ccc(Cn2cccc(NC(=O)NC3CCCCC3)c2=O)cc1 | inconclusive: 11.2 µM [inhibitor, partial curve]
18 | CCOc1nc(NCCO)nc(NCCC2=CCCCC2)n1 | inactive
19 | O=C(CNC(=O)c1ccc(Cl)cc1)N/N=C/c1cccnc1 | inconclusive: 14.1 µM [inhibitor, partial curve]
20 | CCCn1c2ccccc2c2cnn(CC(=O)Nc3cc(OC)c(OC)c(OC)c3)c(=O)c21 | inactive
21 | COc1cccc(-c2nc(CS(=O)CC(=O)NCc3ccc(F)cc3)c(C)o2)c1 (stereo unspecified) | inconclusive: 20 µM [inhibitor, partial curve]
22 | O=C(c1cc(Cl)ccc1Cl)N1CCc2ccccc21 | inconclusive: 28.2 µM [inhibitor, partial curve]

Row | Structure (SMILES) | Potency
23 | N/C(=N\OC(=O)C12CC3CC(CC(C3)C1)C2)c1ccccc1 | inconclusive: 31.6 µM [inhibitor, partial curve]
24 | N#C/C(=C/c1ccc(N2CCCCCC2)o1)c1ccc(Cl)cc1 | inactive
25 | O=C(NC1=NCCS1)c1ccc2c(c1)C(=O)N(Cc1ccco1)C2=O | inconclusive: 50.1 µM [inhibitor, single point]
26 | CCOc1cc(C=O)cc(Br)c1OCC(=O)NCCc1ccccc1 | inconclusive: 25.1 µM [inhibitor, partial curve, poor fit]
27 | O=[N+]([O-])c1ccc(C=Nc2ccc(Cl)c([N+](=O)[O-])c2)s1 | inconclusive: 44.7 µM [inhibitor, single point]
28 | Oc1cccc(C(O)CNCc2ccc(-c3ccccc3)cc2)c1 (stereo unspecified) | inconclusive: 22.4 µM [inhibitor, partial curve]
29 | CC1CC(C)(C)Nc2ccc(OC(=O)c3ccco3)cc21 (stereo unspecified) | inconclusive: 22.4 µM [inhibitor, partial curve]
30 | CC(c1ccccn1)N(C)C(=O)c1ccc2nc(Cc3cccc(Cl)c3)oc2c1 (stereo unspecified) | inconclusive: 15.8 µM [inhibitor, partial curve]
31 | CCc1ccc(C2=NN(CCC(=O)NCCc3ccccc3)C(=O)CC2)cc1 | inconclusive: 28.2 µM [inhibitor, partial curve]
32 | CCc1cc(=O)oc2cc(OCc3nn[nH]n3)ccc12 | inactive
33 | Cc1ccc(C)c(N(C(=O)CCC(=O)Nc2cc(C)on2)C(C(=O)NC2CCCC2)c2ccco2)c1 (stereo unspecified) | inactive
34 | COc1ccc(N2CCN(C(=O)c3ccc(NS(=O)(=O)c4ccc(F)cc4)cc3)CC2)cc1 | inconclusive: 31.6 µM [inhibitor, partial curve]
35 | COc1ccc(N2C(=O)CC(C3CCCO3)C2=O)cc1 (stereo unspecified) | inconclusive: 31.6 µM [inhibitor, partial curve]
36 | COc1cccc(CNc2cc(CSc3ccc(Cl)cc3)nc(C)n2)c1 | inconclusive: 3.16 µM [inhibitor, full curve]
37 | O/N=C1/CCCCc2sccc21 | inconclusive: 17.8 µM [inhibitor, partial curve]
38 | O=C(CN1CCN(c2ccccn2)CC1)Nc1cc(F)ccc1F | inactive
39 | O=S(=O)(Cc1ccccc1)Nc1ccccc1Br | inconclusive: 17.8 µM [inhibitor, partial curve]
40 | O=C1C(Cl)=C(Nc2ccccc2O)C(=O)N1CCc1ccccc1 | inconclusive: 50.1 µM [inhibitor, single point]
41 | O=C1Cc2cc(S(=O)(=O)Nc3ccc(OC(F)(F)F)cc3)cc3c2N1CCC3 | inconclusive: 3.55 µM [inhibitor, full curve, poor fit]
42 | Cc1ccccc1OCC(=O)Nc1ccc2nc(SCC(=O)N3CCCC3)sc2c1 | inactive
43 | CCC1(CC)NC(=O)N(CC(=O)NCc2ccc3c(c2)OCO3)C1=O | inconclusive: 31.6 µM [inhibitor, partial curve]
44 | O=C(OCC(=O)c1ccc[nH]1)c1ccc(S(=O)(=O)N2CCCCCC2)cc1 | inconclusive: 25.1 µM [inhibitor, partial curve]

Row | Structure (SMILES) | Potency
45 | Cc1ccc(NC(=O)C2C3C=CC(O3)C2C(=O)O)cc1C (stereo unspecified) | inconclusive: 56.2 µM [inhibitor, single point]
46 | CCN(c1ccccc1)S(=O)(=O)c1ccc(NC(=O)c2nc(S(C)(=O)=O)ncc2Cl)cc1 | inconclusive: 56.2 µM [inhibitor, single point]
47 | CSc1nnc(NC(=O)c2nc(S(=O)(=O)Cc3cccc(C)c3)ncc2Cl)s1 | inconclusive: 35.5 µM [inhibitor, partial curve]
48 | Cc1ccccc1-c1nc(-c2ccccn2)no1 | inconclusive: 22.4 µM [inhibitor, partial curve]
49 | O=C(Nc1ccccc1C(F)(F)F)N1CCCCCC1 | inconclusive: 35.5 µM [inhibitor, single point]
50 | CCCNC(=O)NC1CCCCCCC1 | inconclusive: 28.2 µM [inhibitor, partial curve]
51 | O=C(Nc1cc(Cl)ccc1Cl)C1Cc2ccccc2O/C1=N\O (stereo unspecified) | inconclusive: 31.6 µM [inhibitor, partial curve]
52 | COc1cccc(NC(=O)Cn2nnc(-c3ccccc3N)n2)c1 | inconclusive: 22.4 µM [inhibitor, partial curve, poor fit]
53 | CC(C)N1CCc2c(sc(NC(=O)c3ccc4ccccc4c3)c2C(N)=O)C1 | inconclusive: 39.8 µM [inhibitor, single point]
54 | Cn1sc(NC(=O)c2ccccc2Cl)nc1=O | inactive
55 | C/C(CCN1CCc2nc(-c3ccccc3)c(-c3ccccc3)cc2C1)=N\O[C@H](C)c1cn([C@H](CO)Cc2ccccc2)nn1 | inconclusive: 25.1 µM [inhibitor, single point]
56 | CC1=C(c2ccc(Cl)cc2)S(=O)(=O)N=C1N1CCN(c2cc(C)ccc2C)CC1 | inconclusive: 0.794 µM [inhibitor, partial curve, poor fit]
57 | CN1CCN(c2ccccc2NC(=O)c2ccc([N+](=O)[O-])o2)CC1 | inactive
58 | O=C(COC(=O)CC12CC3CC(CC(C3)C1)C2)Nc1ncc(Cl)cc1Cl | active: 20 µM
59 | COCC(=O)N1CCC(Oc2ccc(C(=O)NCCCC3CCCC3)cc2)CC1 | inconclusive: 35.5 µM [inhibitor, partial curve]
60 | Cc1cc(N2CCOCC2)ccc1/C=C1\SC(=O)N(C(C)C)C1=O | inactive
61 | O/N=C(/c1ccc(F)cc1)C1CC1c1c(F)cccc1Cl (stereo unspecified) | inconclusive: 28.2 µM [inhibitor, single point]
62 | CSCCC(NC(=O)c1ccc([N+](=O)[O-])cc1Cl)C(=O)OCC(=O)NC1CCCC(C)C1C (stereo unspecified) | inconclusive: 35.5 µM [inhibitor, partial curve]
63 | CN(c1ccccc1)c1nc(N)c([N+](=O)[O-])c(N2CCCCC2)n1 | inconclusive: 25.1 µM [inhibitor, partial curve]
64 | Cc1cc2[nH]c(=O)c(=O)[nH]c2cc1S(=O)(=O)N1CCN(c2ccccc2F)CC1 | inconclusive: 35.5 µM [inhibitor, single point] and inconclusive: 31.6 µM [inhibitor, single point]
65 | COc1ccccc1CN1C[C@@H]2C[C@@H](c3ccc(C)c(C)c3)N3CCC[C@@]23C1=O | inconclusive: 31.6 µM [inhibitor, partial curve]
66 | O=C(CSC(=S)N1CCSCC1)c1ccc(Cl)cc1 | inconclusive: 15.8 µM [inhibitor, partial curve]
